Data taken from PubChem BioAssay (Tox21).
“And” between values parts separate entries of the source, which are not always exact repeats. Identical values can stand only once. Some compounds were tested as several samples or in several runs, with calls that do not always agree. The source made the active and inactive calls. Unless noted, the call rests on the fitted dose curve; in most records, active means well fitted curve in the direction sought with a large enough effect in the repeat runs; inconclusive means weak or mixed curves; inactive means no such curve, though single readings can be large; an effect the other way counts as inactive or inconclusive.

Tests used:
[1] = qHTS assay to identify small molecule antagonists of the thyroid receptor (TR) signaling pathway (AID 743065); further: nearly all actives have a fitted effect of over 55% in size; on activity, negative = inhibition: on the % scale 0 is the no-effect control and ±100 the full control effect
Method in brief: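 Antagonism measured as loss of luciferase signal in GH3 cells stably carrying a TRE-luciferase reporter, co-treated with compound and T3 (1 nM final) for 23.5 h at 37 C. Viability was read in the same well by CellTiter-Fluor.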

[2] = system: thyroid hormone receptor (rat, GH3 cells); test: qHTS assay to identify small molecule agonists of the thyroid receptor (TR) signaling pathway (AID 743066; calls by dose curve; on activation: on the % scale 0 is the no-effect control and ±100 the full control effect); details: GH3.TRE-Luc cells, TR agonist luciferase, 24 h; activation: at 83.9 µM (top of the series) unless noted
[3] = target: Estrogen receptor (Homo sapiens) (UniProt P03372); test: qHTS assay to identify small molecule agonists of the estrogen receptor alpha (ER-alpha) signaling pathway using the BG1 cell line (AID 743079); details: BG1Luc4E2 cells, ERE-luciferase agonist, 22 h; activation: at 70.3 µM (top of the series) unless noted; further: nearly all actives have a fitted effect of over 20% in size; on activation: on the % scale 0 is the no-effect control and ±100 the full control effect
UniProt P03372, sequence (P03372 whole entry, looked up): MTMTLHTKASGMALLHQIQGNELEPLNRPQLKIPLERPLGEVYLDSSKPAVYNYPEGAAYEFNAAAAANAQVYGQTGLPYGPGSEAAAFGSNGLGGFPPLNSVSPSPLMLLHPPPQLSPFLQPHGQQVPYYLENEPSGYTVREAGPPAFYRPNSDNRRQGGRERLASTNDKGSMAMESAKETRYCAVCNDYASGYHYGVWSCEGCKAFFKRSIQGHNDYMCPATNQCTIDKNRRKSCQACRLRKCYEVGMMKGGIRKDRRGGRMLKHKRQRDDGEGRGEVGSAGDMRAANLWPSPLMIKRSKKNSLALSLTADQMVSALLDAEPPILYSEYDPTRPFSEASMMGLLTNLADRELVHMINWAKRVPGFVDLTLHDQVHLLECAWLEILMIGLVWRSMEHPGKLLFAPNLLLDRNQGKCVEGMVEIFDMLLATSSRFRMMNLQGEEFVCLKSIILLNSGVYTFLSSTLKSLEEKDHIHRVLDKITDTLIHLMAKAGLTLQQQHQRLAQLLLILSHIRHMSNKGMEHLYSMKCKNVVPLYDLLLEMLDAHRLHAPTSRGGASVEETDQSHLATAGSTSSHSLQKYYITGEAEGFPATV

[4] = qHTS assay to identify small molecule antagonists of the estrogen receptor alpha (ER-alpha) signaling pathway using the BG1 cell line (AID 743080; calls by dose curve;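 further: BG1 cells stimulated with 17beta-estradiol alongside compound; nearly all actives have a fitted effect of over 25% in size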); details: BG1Luc4E2 ERE-luciferase antagonist mode, luminescence; activity change, negative = inhibition: at 70.3 µM (top of the series) unless noted
Method in brief: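 Luciferase inhibition measured with ONE-Glo after 30 min at RT in BG1Luc4E2 cells given test compounds and 17beta-estradiol for 21.5 h at 37 C; CellTiter-Fluor viability read in the same wells beforehand.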

[5] = target: Estrogen receptor (Homo sapiens) (UniProt P03372); test: qHTS assay to identify small molecule antagonists of the estrogen receptor alpha (ER-alpha) signaling pathway (AID 743069; active means well fitted curve in the direction sought with a large enough effect in the signal ratio in the repeat runs, not every such curve was filed as active; inconclusive means weak or mixed curves, or effect the other way; inactive means no such curve, though single readings can be large or run the other way; the % refers to the signal ratio; on activity, negative = inhibition: on the % scale 0 is the no-effect control and ±100 the full control effect); details: HEK293 ER-alpha-UAS-bla, beta-lactamase ratio, antagonist mode; activity, negative = inhibition: at 69.4 µM (top of the series) unless noted
Method in brief: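 Antagonist mode: compounds in DMSO were co-added with 17beta-estradiol to ER-alpha-bla HEK293 cells (2% charcoal-stripped serum) and left 18 h at 37C. Reporter inhibition was measured as FRET fluorescence after 2 h LiveBLAzer substrate at room temperature.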

[6] = qHTS assay to identify small molecule antagonists of the estrogen receptor alpha (ER-alpha) signaling pathway - cell viability counter screen (AID 743074; calls by dose curve;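 further: HEK293 cells carrying ER-alpha-UAS-bla reporter stimulated with 17beta-estradiol; nearly all actives have a fitted effect of over 45% in size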)
Aromatase (Homo sapiens) = Aromatase (Homo sapiens) (UniProt P11511); test: qHTS assay to identify aromatase inhibitors (AID 743083); further: nearly all actives have a fitted effect of over 55% in size
UniProt P11511, sequence (P11511 whole entry, looked up): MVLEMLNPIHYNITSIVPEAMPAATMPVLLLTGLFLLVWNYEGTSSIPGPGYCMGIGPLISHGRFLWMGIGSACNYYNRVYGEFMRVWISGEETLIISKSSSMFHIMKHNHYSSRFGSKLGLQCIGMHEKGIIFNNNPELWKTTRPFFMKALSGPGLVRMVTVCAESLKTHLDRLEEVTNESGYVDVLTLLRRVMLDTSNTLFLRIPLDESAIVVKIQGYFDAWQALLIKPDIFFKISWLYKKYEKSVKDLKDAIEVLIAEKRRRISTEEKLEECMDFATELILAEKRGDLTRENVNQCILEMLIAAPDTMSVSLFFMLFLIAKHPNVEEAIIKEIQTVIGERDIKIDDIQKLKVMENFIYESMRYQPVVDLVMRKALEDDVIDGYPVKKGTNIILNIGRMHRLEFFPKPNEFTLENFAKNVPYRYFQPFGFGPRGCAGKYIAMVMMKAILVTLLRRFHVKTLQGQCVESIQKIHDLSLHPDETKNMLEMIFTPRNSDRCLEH

[7] = target: Estrogen receptor (Homo sapiens) (UniProt P03372); test: qHTS assay to identify small molecule agonists of the estrogen receptor alpha (ER-alpha) signaling pathway (AID 743075; calls by dose curve;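 further: HEK293 GripTite cells with ER-alpha and UAS-driven beta-lactamase reporter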)
[8] = qHTS assay to identify small molecule antagonists of the estrogen receptor alpha (ER-alpha) signaling pathway using the BG1 cell line - cell viability counter screen (AID 743081); details: BG1Luc4E2 viability, CellTiter-Fluor, 22 h; activity change, negative = cytotoxicity: at 70.3 µM (top of the series);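 further: compound given together with 17beta-estradiol as the ER stimulus; nearly all actives have a fitted effect of over 45% in size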
[9] = qHTS assay to identify aromatase inhibitors - cell viability counter screen (AID 743084); details: MCF-7 aro ERE viability, CellTiter-Fluor, 24 h; activity change, negative = cytotoxicity: at 70.3 µM (top of the series);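 further: cells stimulated with testosterone during compound exposure; nearly all actives have a fitted effect of over 55% in size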
Potency means the concentration at half of the fitted maximal effect; tags describe the fitted curve by direction and shape or compound fluorescence and quenching.

Compound: CCCCOc1ccc(OCCCN2CCOCC2)cc1
- Potency [1]: inconclusive: 12.7 µM [inhibitor, single point]

Compound: CCCCC(CC)COC(=O)COc1cc(Cl)c(Cl)cc1Cl (stereo not drawn)
- Potency [1]: inactive

Compound: C[C@]12CC[C@H]3C(=CCc4cc(O)ccc43)[C@@H]1CCC2=O
- Potency [1]: inconclusive: 68.6 µM [inhibitor, single point]
- Potency [2]: active: 1.54 µM
- activation [3]: active: 38%
- Potency [4]: inconclusive: 10.9 µM [rising, full curve]

Compound: COc1ccc2sc(C(=O)Nc3nnn[nH]3)c(OC(C)C)c2c1
- Potency [1]: active: 6.09 µM
- activation [2]: inconclusive: -8.13% [phenotype inactive]
- Potency [5]: inconclusive: 61.4 µM [fluorescent, partial curve, poor fit]
- Potency [6]: inconclusive: 19.4 µM [cytotoxic, full curve]
- Potency [3]: inconclusive: 9.65 µM [inhibitor, partial curve]
- Potency [4]: active: 54.3 µM
- Potency (Aromatase (Homo sapiens)): inconclusive: 24.2 µM [inhibitor, partial curve]

Compound: CC(C)(C)c1cc(C(C)(C)C)c(O)c(C(C)(C)C)c1
- Potency [1]: inconclusive: 21.7 µM [inhibitor, single point]
- Potency [2]: active: 9.69 µM
- activation [2]: inconclusive: 6.13% [phenotype inactive]
- Potency [5]: inconclusive: 0.616 µM [activator, full curve]
- activity, negative = inhibition [5]: inconclusive: 10.9%
- Potency [6]: inactive
- activity change, negative = inhibition [4]: inconclusive: -16.1%

Compound: CC(C)C(O)(c1ccc(OC(F)(F)F)cc1)c1cncnc1 (stereo not drawn)
- Potency [1]: inconclusive: 68.3 µM [inhibitor, single point]

Compound: O=C(O)Cc1ccccc1Nc1c(Cl)cccc1Cl
- Potency [1]: inconclusive: 68.6 µM [inhibitor]
- activation [2]: inconclusive: -6.34% [phenotype inactive]

Compound: OC(CCN1CCCC1)(c1ccccc1)C1CCCCC1 (stereo not drawn)
- Potency [1]: inconclusive: 10.1 µM [inhibitor, partial curve, poor fit]

Compound: CCCCC[C@H](O)/C=C/[C@H]1[C@H](O)CC(=O)[C@@H]1C/C=C\CCCC(=O)O
- Potency [1]: inconclusive: 5.31 µM [inhibitor, full curve]
- Potency [2]: inactive
- Potency [5]: inconclusive: 0.006 µM [activator]
- Potency [7]: inconclusive: 0.848 µM [activator, full curve]
- Potency [3]: inconclusive: 2.66 µM [inhibitor, full curve]
- Potency [4]: inconclusive: 0.0021 µM [rising, full curve]
- Potency [8]: inconclusive: 0.211 µM [rising, full curve, poor fit]

Compound: COc1cccc(N)c1
- Potency [1]: inconclusive: 54.9 µM [inhibitor, single point]

Compound: CCCCCCCCCCCCCCCC[N+](C)(C)CCN(Cc1ccc(OC)cc1)c1ncccn1
- Potency [1]: inconclusive: 14.3 µM [inhibitor, single point]
- activation [2]: inconclusive: -8.4% [phenotype inactive] [at 39.4 µM]
- Potency [6]: inconclusive: 8.11 µM [cytotoxic, single point]
- activity change, negative = inhibition [4]: inconclusive: -2.25% [at 32.5 µM]
- Potency (Aromatase (Homo sapiens)): active: 12.7 µM

Compound: Oc1c(I)cc(I)c2cccnc12
- Potency [1]: inconclusive: 10.6 µM [inhibitor, partial curve]
- activation [2]: inconclusive: -8.37% [phenotype inactive]
- Potency [5]: active: 6.01 µM [cytotoxic]
- Potency [6]: inconclusive: 9.52 µM [cytotoxic, partial curve, poor fit]
- Potency [4]: inconclusive: 33.5 µM [falling, single point]

Compound: O=C1OC[C@H](Cc2cccc(O)c2)[C@H]1Cc1cccc(O)c1
- Potency [1]: inactive

Compound: CCCCCCCCCCCCCOS(=O)(=O)O
- Potency [1]: inconclusive: 68.6 µM [inhibitor, single point]

Compound: CCc1cc(C(C)(C)C)c(O)c(C(C)(C)C)c1
- Potency [1]: inconclusive: 69.3 µM [inhibitor, single point] and inconclusive: 68.6 µM [inhibitor, single point]
- Potency [2]: inconclusive: 27.6 µM [activator, single point]

Compound: CCOC(=O)CC
- Potency [1]: inactive

Compound: COc1c(Br)cc(Br)c(C)c1Br
- Potency [1]: inactive

Compound: NC(=NCCCCCCN=C(N)/N=C(\N)Nc1ccc(Cl)cc1)/N=C(\N)Nc1ccc(Cl)cc1
- Potency [1]: active: 6.06 µM [middle of 5 runs]
- Potency [2]: inconclusive: 6.06 µM [inhibitor, partial curve, poor fit]
- activation [2]: inconclusive: -8.64% [phenotype inactive]
- activity change, negative = inhibition [4]: inconclusive: -5.92%
- Potency [8]: inconclusive: 68 µM [cytotoxic, single point] [middle of 4 runs]
- Potency [9]: inconclusive: 62.2 µM [cytotoxic, single point]

Compound: C=CCc1ccccc1OCC(O)CNC(C)C (stereo not drawn)
- Potency [1]: inconclusive: 33.5 µM [inhibitor]

Compound: CCCCCCCCCc1ccc(OCCOCCO)cc1
- Potency [1]: inconclusive: 4.56 µM [inhibitor, full curve]
- activation [2]: inconclusive: -7.39% [phenotype inactive]
- Potency [6]: active: 15.1 µM and active: 16.3 µM
- Potency [8]: active: 15 µM and inconclusive: 3.23 µM [cytotoxic, full curve]
- Potency [9]: active: 21.1 µM and active: 22.8 µM

Compound: C[C@@H]1CN(CCCn2c3ccccc3c3ccccc32)C[C@H](C)N1
- Potency [1]: active: 8.41 µM
- activation [2]: inconclusive: -8.68% [phenotype inactive]
- Potency [6]: inconclusive: 10.7 µM [cytotoxic, partial curve, poor fit]
- Potency (Aromatase (Homo sapiens)): inconclusive: 29.8 µM [inhibitor, single point]

Compound: CN(C(=O)CN(CCO)CC(=O)N(C)C(C)(C)Cc1ccccc1)C(C)(C)Cc1ccccc1
- Potency [1]: inconclusive: 14.3 µM [inhibitor, single point]

Compound: Cc1cccc(O)c1N
- Potency [1]: inconclusive: 69.3 µM [inhibitor, single point]

Compound: CC(=O)CC(c1ccccc1)c1c(O)c2ccccc2oc1=O (stereo not drawn)
- Potency [1]: inactive

Compound: Cc1c(N)cccc1N
- Potency [1]: inactive
- Potency [2]: inactive

Compound: O=C(OCc1ccccc1)c1ccc(O)cc1
- Potency [1]: inconclusive: 68.6 µM [inhibitor, single point]
- Potency [2]: inconclusive: 7.5 µM [activator, partial curve, poor fit]
- Potency [5]: inactive and inconclusive: 54.9 µM [inhibitor, partial curve, poor fit]
- Potency [6]: inconclusive: 6.92 µM [rising, partial curve]
- Potency [7]: inconclusive: 21.3 µM [falling, partial curve]
- Potency [4]: inconclusive: 15.4 µM [rising, full curve]
- activity change, negative = inhibition [4]: inconclusive: -9.76%

Compound: CCN(Cc1ccncc1)C(=O)C(CO)c1ccccc1 (stereo not drawn)
- Potency [1]: inactive

Compound: CC#C[C@]1(O)CC[C@H]2[C@@H]3CCC4=CC(=O)CCC4=C3[C@@H](c3ccc(N(C)C)cc3)C[C@@]21C
- Potency [1]: active: 4.73 µM and active: 24.3 µM
- activation [2]: inconclusive: -8.31% [phenotype inactive]
- Potency [4]: active: 16.8 µM and active: 68.6 µM
- Potency [8]: inactive

Compound: c1cc(N(CC2CO2)CC2CO2)ccc1OCC1CO1 (stereo not drawn)
- Potency [1]: active: 4.86 µM and active: 3.86 µM
- Potency [2]: inconclusive: 15.4 µM [inhibitor, partial curve, poor fit]
- Potency [5]: inconclusive: 55 µM [fluorescent, single point] and inconclusive: 61.6 µM [fluorescent, single point]
- Potency [7]: inconclusive: 9.77 µM [activator, partial curve, poor fit]
- Potency [3]: inconclusive: 54.5 µM [inhibitor, partial curve]
- Potency [8]: inconclusive: 54.5 µM [cytotoxic, partial curve, poor fit]
- Potency [9]: active: 27.3 µM and inconclusive: 54.5 µM [cytotoxic, partial curve, poor fit]

Compound: COc1ccccc1N1CCN(CC(O)COc2cccc3ccccc23)CC1 (stereo not drawn)
- Potency [1]: inconclusive: 29.8 µM [inhibitor, single point]

Compound: O=[Se](O)O
- Potency [1]: inconclusive: 19.4 µM [inhibitor, partial curve]
- Potency [2]: inactive
- Potency [5]: active: 43.7 µM [inconclusive]
- Potency [6]: inconclusive: 49 µM [cytotoxic, single point]
- Potency [3]: inconclusive: 12.2 µM [inhibitor, full curve]
- Potency [4]: inconclusive: 3.07 µM [falling, full curve]
- Potency [8]: active: 6.87 µM

Compound: CN(C)CCCN1c2ccccc2Sc2ccc(C(F)(F)F)cc21
- Potency [1]: active: 10.6 µM
- activation [2]: inconclusive: -8.07% [phenotype inactive]
- Potency [5]: inconclusive: 26.8 µM [single point]
- Potency [6]: inconclusive: 19 µM [cytotoxic, partial curve]
- Potency [3]: inconclusive: 33.5 µM [inhibitor]

Compound: COC(=O)c1c(C)cc(O)c(C)c1O
- Potency [1]: inactive
- activation [2]: inconclusive: -0.442% [phenotype inactive]
- Potency [5]: inconclusive: 19.5 µM [activator, full curve]
- Potency [7]: inconclusive: 61.7 µM [activator, partial curve, poor fit]
- Potency [3]: active: 68.6 µM

Compound: Cc1ccc(CO)cc1
- Potency [1]: inactive
- Potency [9]: inactive

Compound: CCN1CCN(c2cc(-c3ccc(F)cc3)c3c(n2)CCCCCC3)CC1
- Potency [1]: active: 18.8 µM
- Potency [8]: inconclusive: 13.3 µM [cytotoxic, full curve]

Compound: CCCCC(CC)COC(=O)c1ccccc1C(=O)O (stereo not drawn)
- Potency [1]: inconclusive: 55.4 µM [inhibitor]
- Potency [6]: inconclusive: 15.8 µM [rising, full curve, poor fit]
- Potency [8]: inconclusive: 38.6 µM [rising, partial curve]
